In the RNAGym collection of RNA variant scans (doi:10.1093/nar/gkz1192) one finds self-cleavage data, which are given here for 68 variants.

First the molecules themselves.
B1: CPEB3 Ribozyme (parent)
chain: UAACAGGGGGCCACAGCAGAAGCGUUCACGUCGCAGCCCCUGUCAGAUUCUGGUGAAUCUGCGAAUUCUGCUGUAUAUCUC

Read counts are not given, so values of variants with three or more changes are uncertain.

Variants of B1 are the subject of this data set. Description: self-cleavage, relative activity (ratio to wild type); higher = more cleavage; in vitro, sequencing. Put shortly: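 For each CPEB3 ribozyme variant, relative activity is its cleaved/total read fraction divided by the unmutated ribozyme's. Barcoded error-prone PCR libraries were transcribed by T7 RNA polymerase (5 hours, 37°C) and held in DNase I for 15 min before an EDTA stop, with cleavage occurring throughout. Template-switching reverse transcription and Illumina sequencing were used to read the RNAs. A 5-read minimum applied, and results are the mean of three batches.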
For the variant UGACAGGGGGCCACAGCAGAAGCGUUCACGUCGCAGCUCCUGUCAGAUUCAGGUGAAUCUGCGAAUUCUGCUGUACAUCUC, the self-cleavage turned out to be 0.41.

Regarding UGACAGGGAGCCACAGCAGAAGCGUUCACGUCGCAGCCCCUGUCAGAUUCUGGUGAAUCUGCGAGUUCUGCUGUAUAUCUC, the self-cleavage is 0.06.

On to UGACAGUGGGCCACCGUAGUAGCGUUCACGUCGCAGCCCCUGUCAGAUUCUGGUGAAUCUGCGAAUUCUGCCGUGUAUCUC, for which the self-cleavage was determined as 0.04.

In the case of UGACAGGGAGCCACAGCAGAAGCGUUCACGUCGCAGCCCCUGUCGGAUUCUGGUGAAUCUGCGAAUUCUGCUGUAUAUCUC, the self-cleavage stood at 0.07.

UGACAGGGGGCCACAGCAGAAGCGUUCACGUCGCAGCCCAUGUCAGAUUCUGGUGAAUCUGCGAAUUAUGCUGUAUAUCUC: the self-cleavage turned out to be 0.04.

Regarding UGACAGGGAGCCACAGCAGAAGCGUUCACGUCGCAGCCCCCGUCAGAUUCUGGUGAAUCUGCGAAUUCUGCUGUAUGUCUC, the self-cleavage amounted to 0.32.

Turning to UGACAAGGGGCCACAGCUGAAGCGUUCACGUCGCAGCCCCUGUCAGAUUCUGGUGAAUCCGCGAAUUCCGCUAUAUAUCUC, the self-cleavage is 0.22.

As for UGACAGGGGGCCACAGCAGAAGCGUUCACGUCGCAGCCCAUGUCGGAAUCUGGUGAAUCUGCGAAUUCUGCCGUAUAUCUC, the self-cleavage is 0.08.

UGACAGGGAGCCACUGCGGAAGCGCUCACGUCGCAGCCCCUGUCAGAUUCUGGUGAAUCUGCGAAUUCUGCUGUAUAUCUC: the self-cleavage is 0.31.

For UGACAUGGGGCCACAGCAGGAGCGUUCAUGUCGUAGCCCCUGCCAGACUCUGGUGAAUCUGCGAAUUCUGCUGUAUAUCUC, the self-cleavage is 0.06.

Regarding UGACAGGGGGCCACAGCAGAAGCGUUCACGUCGCAGCCACUGUCGGAUUCUGGUGAAUCUGCGAAUUCUGCUGUAUAUCUC, the self-cleavage was determined as 0.07.

As for UGACAGGAGGCCACUGCAGAAGCGUUCACGUCGCAGCCCCUGUCAGAUUCUGGUGAAUCUGCGAAUUCUGCUGUAUAUCUC, the self-cleavage is 0.08.

Take UGACAGGUGGCCACAGCAGAAGCGUUCACGUCGCAGCCCCUGUCAGAUUCUGGUGAAUCUGCGAAUUCUGCUAUAUAUCUC: the self-cleavage was found to be 0.5.

Regarding UGACAGGGUGCCACAGCAGUAGCGCUCACGUCGCAGCCCCUGUCAGGUCCUGGUGAAUCUGCGAAUUCUGCUGUAUAUCUC, the self-cleavage amounted to 0.28.

In the case of UGACAGGGAGCCACAGCAGAAGCGUUCACGUCGCAGCCCCUGUCAGAUUCUGGUGAAUCUGCGAAUUCCGCUGUAUAUCUC, the self-cleavage amounted to 0.43.

With UGACAGGGGGCCACAGCAGAAGCGUUCACGUCGCAGGCCCUGUCAGAUUCUGGUGAAUCUGCGAAUCCUGCUGUAUAUCUC, the self-cleavage came out at 0.23.

With UGACAGGAGGCCACAGCAGAAGCGUCCACGUCGCAGCCCCUGUCAGAUUCUGGUGAAUCUGCGAACUCUGCUGUAUAUCUC, the self-cleavage is 0.28.

Consider UGACAGUGGGCCUCAGCGGAAGCGUUCACGUCGCAGCCCCUGUCAGAUUCUGGUGAAUCUGCGAAUUCUGCUGUAUAUCUC, for which the self-cleavage was 0.13.

Turning to UGACAGAGGGCCGCAGCAGAAGCGUCCACGUCGCAGCCCCCGUCAGAUUCUGGUGAAUCUGCGAAUUCUGCUGUAUAUCUC, the self-cleavage is 0.06.

Take UGACAGGGGGCCACAGCAGAAGCGUUCACGUCGCAGCCCUUGUCAGAUUCUGGUGAAUCUGCGAAUCCUGCAGUAUAUCUC: the self-cleavage was found to be 0.08.

UGACAUGGGGCCACGGCAGAAGCGUUCACGUCGCAGCCCCUGUCAGAUUCUGGUGAAUCUGCGAAUUCUGCUGUAUAUCCC: the self-cleavage came to 0.95.

As to UGACAGGCUGCCACAGCUGAAGCGUUCACGUCGCAGCCCCUGUCAGAUUCUGGUGAAUCUGCGAAUUCUGCUGUAUAUCUC, the self-cleavage was 0.33.

Consider UGACAGAGGGCCACAGCAGAAGCGUUCACGUCGCAGCCCCUGUCAGAUACUGGUGAAUCUGCGUAUUCUGCUGUAUAUCUC, for which the self-cleavage was found to be 0.07.

Take UGACAGGGGGCCACAGCAGAAGCGUUCACGUCGCAGCUCCUGUCAGAUUCUGGUGAAUCUGCGAAUUCUGCUGUAUUCCUC: the self-cleavage came to 0.32.

For the variant UGACAGGGAGCCACAGCAGAAGCGUUCACGUCGCAGCCCCUGUCAGAUUCUGGUGAAUCAGCGUAUCCUGCUGUAUGUCGC, the self-cleavage was found to be 0.03.

UGACAAGGGGCCACAGCAGAAGCGUUCACGUCGCAGCCCCUGUCAGAUUCUGGUGAAUCUGCGAAUUCUGCUGUAAAUCUC: the self-cleavage came to 0.16.

Regarding UGACAGGGGGCCACAGCAGAAGCGUUCACGUCGCAGUCCCUGUCAGAUUCUGGCGGAUCUGCGAAUUCUGCUGUAUAUCUC, the self-cleavage was 0.24.

In the case of UGACAGGGGGCCACAGCAGAAGCGUUCACGUCGCAGCCCCUGUCAGAUUCUGGUGAAUAUGCGAAUUCUGUUGUAUAUCUC, the self-cleavage stood at 0.09.

Take UGACAGGCGGCCACAGCAGAAGCGUUCACGUCGCAGCCCCCGUCAGAUUCUGGUGAAUCUGCGAAUUCUGCUGUAUAUCUC: the self-cleavage was determined as 0.47.

On to UGACAUGGGGCCACGGCAGAAGCGUUCACGUCGCAGCCCCUGUCUGAUUCUGGUGAAUCUGCGAAUCCUGCUGUAUAUCUC, for which the self-cleavage came out at 0.28.

UGACAGCGGGCCUCAGCAGAAGCGUUCACGUCGCAGCCCCUGUCAGAUUCUGGUGAAUCUGCGAAUUCUGCCGUAUAUCUC: the self-cleavage came to 0.63.

In the case of UGACAGGAGGCCACAGCAGCAGCGUUCACGUCGCAGCCCCAGUCAGUUUCUGGUGAAUCUGCGAAUUCUGCUGUAUAUCUC, the self-cleavage was 0.07.

In the case of UGACAGAGGGCCACAGCGGAAGCGUUCACGUCGCAGCCCCUGUCAGAUUCUGGUGAAUCUGCGAAUUCUGCUGUAUAUCUC, the self-cleavage was determined as 0.25.

On to UGACAGCGGGCCACAGCAGAGGCGUUCACGUCGCAGCCCCUGUCAGAUUCUGGUGAAUCUGCGAAUUCUGCUGUAUAACUC, for which the self-cleavage came to 0.1.

Take UGACAAGGGGCCACAGCAGAGGCGUUCACGUCGCAGCCCCUGUCAGAUUCUGGUGAAUCUGCGAAUUCUGCUGUAUAUCUC: the self-cleavage came to 0.09.

For UGACAGGGGGCCACAGCAGAAGCGUUCACGUCGCAGUCCCUGCCUGAUUCUGGUGAAUCUGCAAACUCUGCUGUAUAUCUC, the self-cleavage turned out to be 0.06.

UGACAGAGGGCCACAGCAGAAGCGUUCACGUCGCAGCCCCUGUCAGAUUCUGGUGAAUCUUCGAAUUCUGCUGUAUAUCUC: the self-cleavage was 0.09.

UGACAGGGGGCCACAGCAGAAGCGUUCACGUCGCAGCCCUUAUCAGAUUCCGGUGAAUCUGCGAAUUCUGCUGUAUAUCUC: the self-cleavage is 0.41.

As for UGACAGGGUGCCACUGCAGAAGCGUUCACGUCGCAGCCCCUGUCUGAUUCUGGUGAAUCUGCGAGUUCUGCUGUAUAUCUC, the self-cleavage amounted to 0.2.

With UGACAGGUGGCCACAGCAGAAGCGCUCACGUCGCAGCCCCCGUCAGGUUCUGGUGAAUCUGCGAAUUCUGCUGUAUAUCCC, the self-cleavage is 0.43.

In the case of UGACAGGGGGCCACAGCAGAAGCGUUCACGUCGCAGCCCUUGUCAGAUUCUGGUGAAUCUGCGGAUUCUGCUGUAAAUCUC, the self-cleavage was 0.2.

As for UGACAAGGGGCCACAGCAGGAGCGUUCACGUCGCAACCCCUGUCAGAUUCUGGUGAAUCUGCGAAUUCUGCUGCAUAUCUC, the self-cleavage is 0.47.

As to UGACAGGUGGCCACAGCAGAAGCGUUCACGUCGCAGCCCCCGUCAGAUUCUGGUGAAUCUACGAAUUCUGCUGUAUAUCAC, the self-cleavage came out at 0.33.

As to UGACAGGGAGCCACAGCAGAAGCGUUCACGUCGCAUCCCCUGUCAGAUUCUGGUGAAUCUGCGUAUUCUGCUGUACAUCUC, the self-cleavage was determined as 0.03.

With UGACAGGCCGCCACAGCUGAAGCGUUCACGUCGCAGCCCCUGUCGGAUUUUGGUGAAUCUGCGAAUUCUGCUGUACAUCUC, the self-cleavage was determined as 0.08.

With UGACAGGGUGCUACAGCCGAAGCGUUCACGUCGCAGCCCUUGUCAGAUUCUGGUGAAUCUGCGAAUUCUGCUGUAUAUCUC, the self-cleavage turned out to be 0.31.

UGACAGGGGGCCACAGCAGAAGCGUUCACGUCGCAGCCCCUGUCAGAUUCUGGUGAAUCUGUGAAUUCUGCUGUAUAUCGC: the self-cleavage worked out at 0.5.

On to UGACAGGGAGCCACAGCAGAAGCGUUCACGUCGCUGCCCCUGUCAGAUUCAGGUGAAUCUGCGAAUUCUGCUGUAUAUCAC, for which the self-cleavage came to 0.04.

UGACAGAGGGCCACAGCGGAAGCGUUCACGUCGCAGCCCCUGUCAGGUUCUGGUGAAUCUGCGAAUCCUGCUGUAUAUCUC: the self-cleavage was determined as 0.07.

In the case of UGACAAGGGACCACAGCAGAAGGGUUCACGUCGCAGCCCCUGUCAGAUUCUGGUGAAUCUGCGAAUUCUGCCGUAUAUCUC, the self-cleavage amounted to 0.07.

Regarding UGACAGUGGGCCACAGCAGAAGCGUUCACGUCGCAGCCCCUGUCAGAUUCUGGUGAAUCUGCGGAUUCUGCUGUAUACCUC, the self-cleavage came to 0.22.

As to UGACAGGUGGCCACAGCAGGAGCGAUCACGUCGCAGCCCCCGCCAGAUUCUGGUGAAUCUGCGAAUUCUGCUGUAUGUCUC, the self-cleavage was determined as 0.23.

With UGACAGGGGGCCACAGCAGAAGCGUUCACGUCGCAGCCCUUGUCAGAUUCUGGUGAAUCUGCGGAUUCUGCUGAAUAUCUC, the self-cleavage is 0.37.

Turning to UGACAAGGGGCCACAGCAGAAGCGUUCACGUCGCAGCCCCCGUCAGAUUCUGGUGAAUCAGCGAAUUCUGCUGCAUAUCUC, the self-cleavage is 0.38.

As for UGACAGGAGGCCGCAGCAGAAGCGUUCACGUCGCAGCCCCUGUCAGAUUCUGGUGAAUCUGCGAAUUCUGCUGUAUAUCUC, the self-cleavage is 0.53.

Turning to UGACAGGGUGCCACAGCAGAAGCGUUCUCGUCGCAGCCCCUGUCAGAUUCUGGUGUAUCUGCGAAUUCUGCUGUAUAUCUC, the self-cleavage was 0.05.

For UGACAGGGAGCCACAGCAGAAGCGUUCACGUCGCAGCCCCUGUCAGAUUCUGGUGAAUCUGCGAAUUCUGCUGUGUGUCUC, the self-cleavage was 0.13.

Consider UGACAGUGGGCCACGGCAGAAGCGCUCACGUCGCAGCCCCUGCCAGAUUCAGGUGAAUCUGCGAAUUCUGCUGUAUAUCUC, for which the self-cleavage stood at 0.04.

As to UGACAGGGAGCCACAGCUGAAGCAUUCACGUCGCAGCCCCUGUCAGAUUCUGGUGAAUCUGCGAACUCUGCUGUAUAUCUC, the self-cleavage worked out at 0.27.

On to UGACAGCGGGCCACAGCAGACGCGUUCACGUCGCAGCCCCUGUCAGAUACUGGUGAAUCUGCGAUUUCUGCUGUAUAUCUC, for which the self-cleavage worked out at 0.17.

As to UGACAGGGAGCCACAGCAGAAGCGUUCACGUCGCAGCCCCUGUCAGAUUCUGGUGAAUCUGCGAAUUCUGCUGUAUACCUC, the self-cleavage worked out at 0.08.

For the variant UGACAGAGGGCCGCGGCAGAAGCGUUCACGUCGCAGCCCCAGUCAGAUUCUGGUGAGUCUGCGAAUUCUGCUGUAUAUCUC, the self-cleavage turned out to be 0.07.

Take UGACAGGGAGCCACAGCAGAUGCGCUCACGUCGCAGCCCCUGACAGAUUCUGGUGAAUCUGCGAACUCUGCUGUAUACCUC: the self-cleavage is 0.06.

UGACAGGGAGACACAGCCGAAGCGUUCACGUCGCGGCCCCUGUCAGAUUCUGGUGAAUCUGCGAAUUCUGCCGUUUAUCUC: the self-cleavage came to 0.05.

UGACAGGAGGCCACAGCAGUAGCGUUCACGUCGCAGCCCCUGUCAGAUUCUGGUGAAUCUGCGAAUUCUGCUGCUUAUCUC: the self-cleavage amounted to 0.04.

With UGACAGGAGGCCACAGCAGAAGCGUUCACGUCGCAGCCCCUGACAGAUUCUGGUGAAUCUGCGAAUCCCGCUGUAUAUCUC, the self-cleavage stood at 0.06.

For UGACAAGGGGCCACAGCAGAAGCGUUCACGUCGCUGCCCCUGUCAGAUUCUGGUGAAUCUGCGAAUUCUGCUGUAUAUCUC, the self-cleavage was 0.26.

Turning to UGACAGGGAGCCACAGCAGAAGCGUUCACGUCGCUGCCCCUGUCAGAUUCUGGUGAAUCUGCGAAUACUGCGGUAUAUCUC, the self-cleavage is 0.05.
